Out of some 220,000 compounds screened, about 5,700 (2.6%) were called active. This list was built around the results that the source calls inconclusive (neither active nor inactive); the mix of calls is not that of the screen. The call rests on the fitted dose curve; in most records, active means well fitted inhibition curve with a large enough effect; inconclusive means small, poorly fitted or top-dose-only effect; inactive means no such curve, though single readings can be large or run the other way. A potency beside an inconclusive call is a rough fit, not a confirmed value.
What follows are compounds tested against Lysine-specific demethylase 5B (Homo sapiens) (UniProt Q9UGL1) (assay: Primary screen for KDM5B Histone Demethylases FDH-coupled qHTS). Details: FDH-coupled NADH fluorescence (FDH is formaldehyde dehydrogenase); activity change, negative = inhibition: at 57.7 µM (top of the series) unless noted.
UniProt Q9UGL1, sequence (Q9UGL1 whole entry, looked up, the tested form may be a part): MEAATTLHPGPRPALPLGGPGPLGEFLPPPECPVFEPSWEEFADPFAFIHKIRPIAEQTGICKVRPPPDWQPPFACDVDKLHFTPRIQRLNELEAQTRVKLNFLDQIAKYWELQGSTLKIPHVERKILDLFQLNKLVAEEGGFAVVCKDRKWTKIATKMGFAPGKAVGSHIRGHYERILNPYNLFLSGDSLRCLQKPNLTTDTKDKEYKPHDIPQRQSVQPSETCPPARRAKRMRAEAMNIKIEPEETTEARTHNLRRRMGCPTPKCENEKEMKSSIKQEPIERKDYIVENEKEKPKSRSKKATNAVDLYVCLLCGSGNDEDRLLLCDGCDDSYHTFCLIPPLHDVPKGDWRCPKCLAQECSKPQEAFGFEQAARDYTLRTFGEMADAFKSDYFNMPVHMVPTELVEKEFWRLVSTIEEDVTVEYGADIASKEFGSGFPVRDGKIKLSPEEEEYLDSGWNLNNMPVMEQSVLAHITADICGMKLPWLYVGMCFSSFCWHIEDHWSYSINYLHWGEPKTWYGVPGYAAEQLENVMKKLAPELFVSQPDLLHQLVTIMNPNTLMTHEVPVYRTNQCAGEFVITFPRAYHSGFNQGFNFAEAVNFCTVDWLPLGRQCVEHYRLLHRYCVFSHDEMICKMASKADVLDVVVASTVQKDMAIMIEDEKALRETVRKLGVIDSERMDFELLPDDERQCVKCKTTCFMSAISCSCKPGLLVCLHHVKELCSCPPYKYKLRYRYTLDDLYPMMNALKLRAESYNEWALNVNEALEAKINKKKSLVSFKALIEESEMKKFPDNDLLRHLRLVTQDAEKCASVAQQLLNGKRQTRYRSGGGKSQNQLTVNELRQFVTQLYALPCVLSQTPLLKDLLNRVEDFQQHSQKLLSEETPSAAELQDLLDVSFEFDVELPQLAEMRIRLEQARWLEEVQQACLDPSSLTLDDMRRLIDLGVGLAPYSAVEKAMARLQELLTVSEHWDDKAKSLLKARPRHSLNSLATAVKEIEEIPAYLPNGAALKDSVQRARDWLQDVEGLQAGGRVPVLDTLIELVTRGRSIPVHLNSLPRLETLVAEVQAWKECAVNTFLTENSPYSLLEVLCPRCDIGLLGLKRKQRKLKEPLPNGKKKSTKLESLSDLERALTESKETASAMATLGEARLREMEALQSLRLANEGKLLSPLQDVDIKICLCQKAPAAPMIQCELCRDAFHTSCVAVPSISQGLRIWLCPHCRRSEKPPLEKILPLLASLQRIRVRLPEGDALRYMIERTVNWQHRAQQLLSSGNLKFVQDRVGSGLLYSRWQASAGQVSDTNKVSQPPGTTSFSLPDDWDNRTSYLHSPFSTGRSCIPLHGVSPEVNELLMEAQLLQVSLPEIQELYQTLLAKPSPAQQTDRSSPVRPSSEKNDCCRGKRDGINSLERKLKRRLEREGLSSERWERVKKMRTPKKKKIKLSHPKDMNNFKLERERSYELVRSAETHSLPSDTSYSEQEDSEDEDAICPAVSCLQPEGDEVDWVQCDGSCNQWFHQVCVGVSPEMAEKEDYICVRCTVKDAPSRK
Summary of the method: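 Inhibition is measured as reduced NADH fluorescence generation from FDH coupling to formaldehyde release. Truncated KDM5BΔAP at 200 nM final acts on H3K4me3 peptide (12.5 µM in substrate mix) in pH 7.5 HEPES buffer with Tween-20, 30 min, room temperature.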
Cc1ccc(-c2nccn3cc(C(=O)O)nc23)cc1 was tested, and the Potency was inconclusive: 28.2 µM [inhibitor, partial curve].
With CCCCCOc1ccc(C(=O)C(CCC(CNC(C)(C)C)C(=O)c2ccc(OCCCCC)cc2)CNC(C)(C)C)cc1 (stereo not drawn) the Potency was inconclusive: 25.1 µM [inhibitor, partial curve, poor fit].
With Cc1ccc(N(CC(=O)N2CCN(c3cc(C)ccc3C)CC2)S(=O)(=O)c2c(C)nn(C)c2C)cc1 the Potency was inconclusive: 5.01 µM [inhibitor, full curve, poor fit].
With COc1ccc(-c2cc3c(=O)n(CCNC(=O)c4c(F)cccc4F)ccn3n2)cc1 the Potency was active: 22.4 µM.
With CC1=C[C@@H](CNC(=O)CCCC(=O)O)[C@H](C(C)C)C[C@H]1Cc1nc2ncccc2[nH]1 the Potency was inconclusive: 39.8 µM [inhibitor, single point].
CC1(C)CC(Nc2nccc(C(F)(F)F)n2)CC(C)(C)N1 was tested, and the Potency was “inactive”.
In the case of CCc1ccc(-c2nc(CS(=O)CC(=O)NCCc3ccc(C)cc3)c(C)o2)cc1 (stereo not drawn), the Potency is reported as inconclusive: 28.2 µM [inhibitor, single point].
With N#Cc1ccc(S(=O)(=O)N2CCC3(CC2)CC2C(=O)NCCN2C3)cc1 (stereo not drawn) the Potency was inconclusive: 20 µM [inhibitor, partial curve, poor fit].
CCN(CC)CCOC(=O)c1ccc(Nc2c3c(nc4ccccc24)CCC3)cc1 was tested, and the Potency was inconclusive: 39.8 µM [inhibitor, single point].
For COCCNc1nccc(C2(c3ccccc3Cl)CCNCC2)n1, the Potency was active: 22.4 µM.
COc1ccc(S(=O)(=O)N2CCN(Cc3cccc([N+](=O)[O-])c3)CC2)cc1 was tested, and the Potency was inconclusive: 11.2 µM [inhibitor, partial curve, poor fit].
In the case of Cc1ccc2nc(COc3cccc(NC(=O)c4ccccc4Cl)c3)cc(=O)n2c1, the Potency is reported as inconclusive: 35.5 µM [inhibitor, partial curve, poor fit].
With CCOc1ccccc1CNC(=O)c1cnc2sc(N(CC)CC)nn2c1=O the Potency was inconclusive: 2.82 µM [inhibitor, full curve, poor fit].
For CC(C)CN(CCNC(=O)c1cc(-c2cccs2)nc2ccccc12)CC(C)C, the Potency was inconclusive: 10 µM [inhibitor, partial curve, poor fit].
COc1ccc(-c2nc(Cn3nc(C)c4c(C)onc4c3=O)c(C)o2)cc1 was tested, and the activity change, negative = inhibition was inconclusive: -32.9% [inhibitor].
Cc1ccc2nc([C@H]3CCN(Cc4ccc(C(F)(F)F)cc4)C3)[nH]c2c1 was tested, and the Potency was “inactive”.
With CCN(CC)CCOC(=O)c1ccc(NC(=O)c2cc3c(s2)-c2ccccc2OC3)cc1 the Potency was inconclusive: 35.5 µM [inhibitor, partial curve, poor fit].
With COc1ccc(N2CCCCS2(=O)=O)cc1S(=O)(=O)NCc1ccncc1 the Potency was “inactive”.
With COCCn1cnc2ccc(OCc3ccc(Cl)cc3)nc2c1=O the Potency was “inactive”.
COc1ccc(C(=O)c2oc3ccccc3c2NC(=O)c2cccc(OC)c2)cc1 was tested, and the activity change, negative = inhibition was inconclusive: -31.7% [inhibitor].
Cn1ccc2c(C(=O)NCc3cccnc3)nc(-c3cncnc3)cc21 was tested, and the Potency was “inactive”.
COCc1cc(=O)n(CC(=O)Nc2cc(OC)ccc2OC)c(N2CCOCC2)n1 was tested, and the Potency was “inactive”.
In the case of N#CCSc1nnc(-c2nn(Cc3ccccc3)c(=O)c3ccccc23)o1, the Potency is reported as “inactive”.
CCOC(=O)c1cc(-c2ccccc2)n(CCCC(=O)Nc2ccccc2C)c1C was tested, and the Potency was inconclusive: 25.1 µM [inhibitor, partial curve, poor fit].
With CCCCNC(=S)NC1CCC(NC(=S)NCCCC)CC1 (stereo not drawn) the Potency was “inactive”.
With Cc1cccc(NC(=O)Nc2ccc(C)n(CC(=O)NC3CCCCC3)c2=O)c1 the Potency was inconclusive: 31.6 µM [inhibitor, partial curve, poor fit].
For CC1(COCC2CC2)COc2ccc(C(=O)NCc3cccc(F)c3)cc2N1 (stereo not drawn), the Potency was active: 39.8 µM.
With CCN1c2cc(C(=O)Nc3cccc4c3CCCC4)ccc2C(=O)N2CCCCCC21 (stereo not drawn) the Potency was inconclusive: 35.5 µM [inhibitor, partial curve, poor fit].
With CCc1ccc(-c2c(C)sc(N)c2C#N)cc1 the Potency was inconclusive: 28.2 µM [inhibitor, single point].
For CCCN(CCC)C(=O)c1nn(C)c2c1CSc1ccc(C)cc1-2, the Potency was inconclusive: 28.2 µM [inhibitor, single point].
For CC(C)Cn1c(=O)c2ccccc2n2c(CCC(=O)Nc3ccc(F)cc3)nnc12, the Potency was “inactive”.
COCCCNc1ncccc1-c1cc(-c2ccccc2)nc2c(C)noc12 was tested, and the Potency was active: 39.8 µM.
With CCn1c(=O)c2cc(C(=O)N(C)c3cc(C)ccc3OC)sc2c2ccccc21 the Potency was inconclusive: 39.8 µM [inhibitor, single point].
In the case of COc1ccc(-c2nc3c4ccccc4ccn3c2CN2CCOCC2)cc1OC, the Potency is reported as inconclusive: 31.6 µM [inhibitor, partial curve, poor fit].
NC(=O)C1CN(CC(=O)Nc2ccccc2Cl)c2ccccc2O1 (stereo not drawn) was tested, and the Potency was “inactive”.
With Cn1nc(C(=O)N2CCC3(CC2)N=C(c2cccc(Br)c2)NO3)c2ccccc21 the Potency was inconclusive: 31.6 µM [inhibitor, single point].
In the case of CCOCCn1cnc2sc(C(=O)Nc3ccccc3C(=O)OC)c(C)c2c1=O, the Potency is reported as inconclusive: 1.26 µM [inhibitor, full curve, poor fit].
In the case of CN1c2cc(C(=O)N3CCN(c4ccccc4)CC3)ccc2C(=O)N2CCCCCC21 (stereo not drawn), the Potency is reported as inconclusive: 22.4 µM [inhibitor, partial curve, poor fit].
In the case of CN(C)CCNc1oc(COc2cccc(Cl)c2)nc1C#N, the Potency is reported as inconclusive: 14.1 µM [inhibitor, partial curve, poor fit].
With O=C(O)c1cccc(-c2ccc(CNC3CCCCC3)o2)c1 the Potency was inconclusive: 28.2 µM [inhibitor, partial curve, poor fit].
In the case of COc1ccc(OC)c(CNC(=O)c2nccnc2N)c1, the Potency is reported as “inactive”.
In the case of O=C(NC1CCCC1)c1cc(-c2ccncc2)nc2ccccc12, the Potency is reported as “inactive”.
In the case of Cn1cnnc1CC1CCN(C(=O)c2cn3cc(Cl)ccc3n2)CC1, the Potency is reported as inconclusive: 25.1 µM [inhibitor, partial curve].

— PubChem BioAssay AID1347165 (National Center for Advancing Translational Sciences (NCATS), 2019)
Further: nearly all actives have a fitted effect of over 70% in size.
Potency means the concentration at half of the fitted maximal effect; tags describe the fitted curve by direction and shape.
Wherever activity change, negative = inhibition is given: 0% is about no effect.
